The other results are listed elsewhere or left out. Most values come without repeats; read them as rough.
Tests used:
Assay in all cases: cell count relative to DMSO control; melanoma cells; higher = more viable cells
Details in all cases: library dose: low library concentration; 72 h
WM115 = test system: WM115
WM1716 = test system: WM1716
WM1745 = test system: WM1745
WM3526 = test system: WM3526
WM3619 = test system: WM3619
WM451Lu = test system: WM451Lu
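Further: cell number obtained by counting DAPI-stained nuclei in high-throughput microscope images with image analysis software, screen run in 1,536-well plates.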

Row | SMILES | cell count (WM115) [%] | cell count (WM1716) [%] | cell count (WM1745) [%] | cell count (WM3526) [%] | cell count (WM3619) [%] | cell count (WM451Lu) [%]
1 | O=C(O)[C@@H]1[O][Sb](=[O])([O][Sb]2(=[O])[O][C@H]([C@H](O)CO)[C@H](O)[C@H](C(=O)O)[O]2)[O][C@H]([C@H](O)CO)[C@@H]1O (stereo partly drawn) [stibogluconate] + CO[C@@H]1[C@H](N(C)C(=O)c2ccccc2)C[C@H]2O[C@]1(C)n1c3ccccc3c3c4c(c5c6ccccc6n2c5c31)C(=O)NC4 [Midostaurin] (first compound 2 µM, partner dose 0.08 µM) | 78.7 | 75.2 | 88.3 | 106 | 109 | 110
2 | O=C(O)c1ccc2c(c1)nc(Nc1cccc(Cl)c1)c1ccncc12 + CC(=O)c1c(C)c2cnc(Nc3ccc(N4CCNCC4)cn3)nc2n(C2CCCC2)c1=O [palbociclib] (first compound 0.4 µM, partner dose 0.04 µM) | 85.7 | 53.5 | 81.9 | 47.5 | 85.2 | 103
3 | O=C(Nc1cc(C(F)(F)F)cc(C(F)(F)F)c1)c1cc(Cl)ccc1O + CN1CCN(c2ccc3nc(-c4c(N)c5c(F)cccc5[nH]c4=O)[nH]c3c2)CC1 [Dovitinib] (first compound 0.016 µM, partner dose 0.1 µM) | 103 | 105 | 93.9 | 102 | 96.2 | 104
4 | O=C(Nc1cc(C(F)(F)F)cc(C(F)(F)F)c1)c1cc(Cl)ccc1O + CC(=O)c1c(C)c2cnc(Nc3ccc(N4CCNCC4)cn3)nc2n(C2CCCC2)c1=O [palbociclib] (first compound 0.016 µM, partner dose 0.04 µM) | 75.1 | 64.8 | 80.3 | 71.8 | 58.2 | 127
5 | Cc1cc(N2CCOCC2)cc2[nH]c(-c3c(NC[C@@H](O)c4cccc(Cl)c4)cc[nH]c3=O)nc12 + O=c1cc(-c2cccc3c2Sc2ccccc2S3)oc(N2CCOCC2)c1 [KU55933] (first compound 0.2 µM, partner dose 1 µM) | 110 | 89.1 | 88.5 | 79.7 | 80.6 | 109
6 | O=C(O)[C@@H]1[O][Sb](=[O])([O][Sb]2(=[O])[O][C@H]([C@H](O)CO)[C@H](O)[C@H](C(=O)O)[O]2)[O][C@H]([C@H](O)CO)[C@@H]1O (stereo partly drawn) [stibogluconate] + NCC(=O)Nc1ccc(-n2nc(C(F)(F)F)cc2-c2ccc3c(ccc4ccccc43)c2)cc1 [OSU03012] (first compound 2 µM, partner dose 1 µM) | 88.6 | 90.5 | 99.5 | 67.9 | 100 | 79.8
7 | O=C(Nc1cc(C(F)(F)F)cc(C(F)(F)F)c1)c1cc(Cl)ccc1O + CC1(C)CCC(c2ccc(Cl)cc2)=C(CN2CCN(c3ccc(C(=O)NS(=O)(=O)c4ccc(N[C@H](CCN5CCOCC5)CSc5ccccc5)c(S(=O)(=O)C(F)(F)F)c4)cc3)CC2)C1 [ABT263] (first compound 0.016 µM, partner dose 0.4 µM) | 93.3 | 87.6 | 38 | 85.7 | 70.4 | 83.8
8 | Cc1cc(N2CCOCC2)cc2[nH]c(-c3c(NC[C@@H](O)c4cccc(Cl)c4)cc[nH]c3=O)nc12 + OCCn1cc(-c2cnc3nnn(Cc4ccc5ncccc5c4)c3n2)cn1 [PF04217903] (first compound 0.2 µM, partner dose 1 µM) | 90.3 | 102 | 90.5 | 88.3 | 91.4 | 112
9 | O=C(O)c1ccc2c(c1)nc(Nc1cccc(Cl)c1)c1ccncc12 + CCCS(=O)(=O)Nc1ccc(F)c(C(=O)c2c[nH]c3ncc(Cl)cc23)c1F [PLX4720] (first compound 0.4 µM, partner dose 0.08 µM) | 92.8 | 85.1 | 90.7 | 78.6 | 87.2 | 120
10 | Cc1cc(N2CCOCC2)cc2[nH]c(-c3c(NC[C@@H](O)c4cccc(Cl)c4)cc[nH]c3=O)nc12 + O=C(O)c1ccc(-c2c[nH]c3ncc(-c4ccccc4)cc23)cc1C1CCCC1 [GSK650394] (first compound 0.2 µM, partner dose 0.16 µM) | 103 | 103 | 73.5 | 87.3 | 87.6 | 111
11 | O=C(Nc1cc(C(F)(F)F)cc(C(F)(F)F)c1)c1cc(Cl)ccc1O + CN(c1ncccc1CNc1nc(Nc2ccc3c(c2)CC(=O)N3)ncc1C(F)(F)F)S(C)(=O)=O [PF562271] (first compound 0.016 µM, partner dose 0.08 µM) | 82.6 | 88.2 | 81 | 78.1 | 80.5 | 87.6
12 | O=C(Nc1cc(C(F)(F)F)cc(C(F)(F)F)c1)c1cc(Cl)ccc1O + O=C(O)C(=O)Nc1sc2c(c1C(=O)O)CCNC2 [TCS401] (first compound 0.016 µM, partner dose 1.66667 µM) | 103 | 117 | 91.4 | 103 | 131 | 92.9
13 | O=C(Nc1ccccc1)c1cc([N+](=O)[O-])ccc1Cl + O=C(O)C(=O)Nc1sc2c(c1C(=O)O)CCNC2 [TCS401] (first compound 2 µM, partner dose 1.66667 µM) | 101 | 91.3 | 88.4 | 95.8 | 98.2 | 93.9
14 | O=C(Nc1cc(C(F)(F)F)cc(C(F)(F)F)c1)c1cc(Cl)ccc1O + Nc1ccn([C@@H]2O[C@H](CO)[C@@H](O)C2(F)F)c(=O)n1 [gemcitabine] (first compound 0.016 µM, partner dose 0.0004 µM) | 93.5 | 87.8 | 81 | 105 | 83.6 | 106
15 | Cc1cc(N2CCOCC2)cc2[nH]c(-c3c(NC[C@@H](O)c4cccc(Cl)c4)cc[nH]c3=O)nc12 + Cc1cc([N+](=O)[O-])ccc1NS(=O)(=O)c1cc(Cl)ccc1Cl [FH535] (first compound 0.2 µM, partner dose 1 µM) | 94.3 | 99.3 | 59.6 | 107 | 91.3 | 113
16 | O=C(Nc1cc(C(F)(F)F)cc(C(F)(F)F)c1)c1cc(Cl)ccc1O + C[C@]1(O)C[C@@H](c2nc(-c3ccc4ccc(-c5ccccc5)nc4c3)c3c(N)nccn32)C1 [OSI906] (first compound 0.016 µM, partner dose 0.4 µM) | 88.6 | 102 | 77.4 | 104 | 97.9 | 99.6
17 | O=C(O)c1ccc2c(c1)nc(Nc1cccc(Cl)c1)c1ccncc12 + CCN(CC)CCCCNc1ncc2cc(-c3cc(OC)cc(OC)c3)c(NC(=O)NC(C)(C)C)nc2n1 [PD173074] (first compound 0.4 µM, partner dose 0.1 µM) | 93.8 | 92.3 | 89.2 | 100 | 92.4 | 85.8
18 | Cn1nnc2c(C(N)=O)ncn2c1=O [temozolomide] + COc1cc2ncnc(Nc3ccc(Oc4ccccc4)cc3)c2cc1OC [SrcI1] (first compound 2 µM, partner dose 2 µM) | 98.1 | 98 | 77.5 | 103 | 105 | 105
19 | O=C(O)c1ccc2c(c1)nc(Nc1cccc(Cl)c1)c1ccncc12 + C=CCNC1=C2C[C@@H](C)C[C@H](OC)[C@H](O)[C@@H](C)/C=C(\C)[C@H](OC(N)=O)[C@@H](OC)/C=C\C=C(/C)C(=O)NC(=CC1=O)C2=O [Tanespimycin] (first compound 0.4 µM, partner dose 0.002 µM) | 102 | 84.2 | 93.7 | 74 | 109 | 84
20 | O=C(O)[C@@H]1[O][Sb](=[O])([O][Sb]2(=[O])[O][C@H]([C@H](O)CO)[C@H](O)[C@H](C(=O)O)[O]2)[O][C@H]([C@H](O)CO)[C@@H]1O (stereo partly drawn) [stibogluconate] + Cc1nc(Nc2ncc(C(=O)Nc3c(C)cccc3Cl)s2)cc(N2CCN(CCO)CC2)n1 [dasatanib] (first compound 2 µM, partner dose 0.004 µM) | 68.6 | 56.9 | 62.7 | 96.3 | 88.9 | 93
21 | O=C(Nc1cc(C(F)(F)F)cc(C(F)(F)F)c1)c1cc(Cl)ccc1O + Oc1nc(-c2ccc(C(F)(F)F)cc2)nc2c1CSCC2 [XAV939] (first compound 0.016 µM, partner dose 2 µM) | 96.7 | 54.7 | 101 | 92.8 | 138 | 91.4
22 | O=C(O)c1ccc2c(c1)nc(Nc1cccc(Cl)c1)c1ccncc12 + O=c1cc(-c2cccc3c2Sc2ccccc2S3)oc(N2CCOCC2)c1 [KU55933] (first compound 0.4 µM, partner dose 1 µM) | 98.7 | 105 | 95.9 | 83.1 | 91.1 | 98.1
23 | O=C(O)[C@@H]1[O][Sb](=[O])([O][Sb]2(=[O])[O][C@H]([C@H](O)CO)[C@H](O)[C@H](C(=O)O)[O]2)[O][C@H]([C@H](O)CO)[C@@H]1O (stereo partly drawn) [stibogluconate] + O=C1NC(=O)/C(=C/c2ccc(-c3ccc(F)cc3O)o2)S1 [AS252424] (first compound 2 µM, partner dose 1 µM) | 101 | 96.3 | 86.4 | 94 | 94.9 | 144
